Data taken from article PMC9561284.
No constants are given. Whether binding was seen depends on the method and setting. Binding seen in cells or lysates may run through a third protein. Some binding calls cover weakened binding; strength is not graded here. For some of these results: Where a sequence is shown, tags or fusion partners need not be part of it.

Amino acid sequences for entries named in this document (tags omitted).
UniProt O00567: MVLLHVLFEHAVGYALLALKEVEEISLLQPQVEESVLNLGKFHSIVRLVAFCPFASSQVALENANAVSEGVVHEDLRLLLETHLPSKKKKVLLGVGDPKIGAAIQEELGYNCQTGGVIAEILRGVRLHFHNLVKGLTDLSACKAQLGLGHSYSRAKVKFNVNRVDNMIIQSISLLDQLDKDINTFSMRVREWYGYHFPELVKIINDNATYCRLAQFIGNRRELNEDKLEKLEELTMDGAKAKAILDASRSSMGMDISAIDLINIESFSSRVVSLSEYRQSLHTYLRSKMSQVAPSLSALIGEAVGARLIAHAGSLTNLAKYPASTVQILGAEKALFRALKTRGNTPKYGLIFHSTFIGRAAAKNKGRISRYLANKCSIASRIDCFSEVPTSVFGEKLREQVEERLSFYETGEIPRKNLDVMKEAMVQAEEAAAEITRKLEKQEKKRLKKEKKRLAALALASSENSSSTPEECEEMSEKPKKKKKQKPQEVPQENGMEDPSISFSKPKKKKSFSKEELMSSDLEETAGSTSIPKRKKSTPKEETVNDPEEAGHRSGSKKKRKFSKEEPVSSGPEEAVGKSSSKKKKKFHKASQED
UniProt Q9Y265: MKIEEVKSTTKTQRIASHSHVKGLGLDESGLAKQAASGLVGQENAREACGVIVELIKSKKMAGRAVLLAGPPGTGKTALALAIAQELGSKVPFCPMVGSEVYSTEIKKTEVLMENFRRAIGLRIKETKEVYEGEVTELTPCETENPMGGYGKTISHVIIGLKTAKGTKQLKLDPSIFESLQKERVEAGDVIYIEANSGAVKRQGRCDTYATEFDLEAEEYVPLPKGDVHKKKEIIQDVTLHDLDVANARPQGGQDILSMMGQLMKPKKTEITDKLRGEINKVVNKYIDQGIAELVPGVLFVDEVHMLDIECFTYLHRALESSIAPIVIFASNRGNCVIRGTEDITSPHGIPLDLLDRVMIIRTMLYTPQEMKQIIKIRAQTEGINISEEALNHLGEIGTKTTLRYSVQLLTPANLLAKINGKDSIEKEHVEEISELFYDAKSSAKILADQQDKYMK
UniProt Q9UHK0: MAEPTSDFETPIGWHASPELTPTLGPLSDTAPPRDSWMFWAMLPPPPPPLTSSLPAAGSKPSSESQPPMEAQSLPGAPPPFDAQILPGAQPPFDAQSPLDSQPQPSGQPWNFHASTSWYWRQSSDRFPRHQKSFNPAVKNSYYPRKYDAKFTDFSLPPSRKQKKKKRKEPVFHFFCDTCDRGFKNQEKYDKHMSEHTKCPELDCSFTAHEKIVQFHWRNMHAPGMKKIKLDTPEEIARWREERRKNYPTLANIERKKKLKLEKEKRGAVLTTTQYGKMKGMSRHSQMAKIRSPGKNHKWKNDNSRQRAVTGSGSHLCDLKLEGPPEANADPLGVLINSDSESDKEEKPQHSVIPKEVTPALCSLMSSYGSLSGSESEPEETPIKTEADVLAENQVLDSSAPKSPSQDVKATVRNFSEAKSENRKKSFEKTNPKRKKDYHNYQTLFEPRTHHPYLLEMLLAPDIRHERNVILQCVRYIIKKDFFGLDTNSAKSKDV

How the values were obtained:
[1] = molecular target: T1, FLAG-tagged NOP2/NSUN1 WT (human) (UniProt P46087); assay: co-IP; anti-FLAG IP from nuclear and nucleolar extracts of HEK293T cells expressing FLAG-NOP2/NSUN1 WT (mock as control); Western blot
T1 sequence: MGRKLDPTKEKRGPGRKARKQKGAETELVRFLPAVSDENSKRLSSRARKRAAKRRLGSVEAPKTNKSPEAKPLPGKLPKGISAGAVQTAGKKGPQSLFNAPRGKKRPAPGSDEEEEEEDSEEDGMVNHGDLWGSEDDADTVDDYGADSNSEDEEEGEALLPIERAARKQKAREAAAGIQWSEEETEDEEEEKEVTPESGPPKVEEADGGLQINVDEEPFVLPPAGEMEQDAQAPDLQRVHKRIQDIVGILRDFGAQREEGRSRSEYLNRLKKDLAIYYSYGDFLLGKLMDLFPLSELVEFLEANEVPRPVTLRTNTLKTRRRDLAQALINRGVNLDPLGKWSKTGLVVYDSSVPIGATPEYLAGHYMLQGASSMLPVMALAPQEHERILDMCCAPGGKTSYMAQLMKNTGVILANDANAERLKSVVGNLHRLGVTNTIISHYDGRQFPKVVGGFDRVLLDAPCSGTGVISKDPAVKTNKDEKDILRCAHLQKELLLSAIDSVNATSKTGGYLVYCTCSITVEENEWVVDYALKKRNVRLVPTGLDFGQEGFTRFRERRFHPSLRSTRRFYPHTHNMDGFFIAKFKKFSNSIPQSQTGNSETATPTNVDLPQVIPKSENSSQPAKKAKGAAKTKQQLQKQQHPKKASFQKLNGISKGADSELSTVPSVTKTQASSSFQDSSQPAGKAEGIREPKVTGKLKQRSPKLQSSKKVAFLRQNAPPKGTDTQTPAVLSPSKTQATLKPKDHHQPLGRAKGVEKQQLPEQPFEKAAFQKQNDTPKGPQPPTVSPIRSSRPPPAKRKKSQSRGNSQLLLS

[2] = molecular target: T1, FLAG-tagged NOP2/NSUN1 WT (human); assay: co-IP; anti-FLAG IP from lysate of HEK293T cells expressing FLAG-NOP2/NSUN1 WT (mock-transfected cells as control); ELB buffer (0.5% NP-40, 50 mM HEPES pH 7.2, 250 mM NaCl, 2 mM EDTA), protein G agarose, Western blot
[3] = molecular target: NOP56 (human (endogenous in HEK293T and HCT116)) (UniProt O00567); assay: co-IP; anti-NOP56 IP of endogenous proteins from HEK293T lysate (normal rabbit IgG as control); also from cells transfected with control or NOP2 siRNA for 72 h; ELB buffer, Western blot
[4] = molecular target: NOP56 (human (endogenous in HEK293T and HCT116)) (UniProt O00567); assay: co-IP; anti-NOP56 IP of endogenous proteins from nuclear and nucleolar extracts of HCT116 cells (normal rabbit IgG as control); Western blot
[5] = molecular target: RUVBL1 (human (endogenous in HCT116)) (UniProt Q9Y265); assay: co-IP; IP of endogenous RUVBL1, NUFIP1 or La protein from sonicated HCT116 lysate (1% NP-40, 50 mM Tris-HCl pH 7.5, 150 mM NaCl, 2 mM MgCl2; normal rabbit IgG as control); Western blot
[6] = molecular target: T2, La protein (human (endogenous in HCT116)) (UniProt P05455); assay: as above
T2 sequence: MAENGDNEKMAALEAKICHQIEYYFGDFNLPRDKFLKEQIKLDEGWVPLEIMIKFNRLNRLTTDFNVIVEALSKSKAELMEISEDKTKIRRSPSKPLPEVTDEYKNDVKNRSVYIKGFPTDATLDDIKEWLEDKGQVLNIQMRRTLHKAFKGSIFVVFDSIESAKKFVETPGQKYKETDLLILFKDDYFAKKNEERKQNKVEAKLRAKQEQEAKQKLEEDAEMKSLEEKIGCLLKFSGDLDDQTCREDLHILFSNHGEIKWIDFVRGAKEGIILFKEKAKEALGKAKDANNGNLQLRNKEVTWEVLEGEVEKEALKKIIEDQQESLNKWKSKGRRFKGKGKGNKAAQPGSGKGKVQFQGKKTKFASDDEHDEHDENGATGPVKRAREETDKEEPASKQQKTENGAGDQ

[7] = molecular target: NUFIP1 (human (endogenous in HCT116)) (UniProt Q9UHK0); assay: as above

NOP56 (from UniProt O00567 1-594)
binding [1]: binds | binding [2]: binds

B1: Fibrillarin (enzyme, UniProt P22087 1-321)
chain: MKPGFSPRGGGFGGRGGFGDRGGRGGRGGFGGGRGRGGGFRGRGRGGGGGGGGGGGGGRGGGGFHSGGNRGRGRGGKRGNQSGKNVMVEPHRHEGVFICRGKEDALVTKNLVPGESVYGEKRVSISEGDDKIEYRAWNPFRSKLAAAILGGVDQIHIKPGAKVLYLGAASGTTVSHVSDIVGPDGLVYAVEFSHRSGRDLINLAKKRTNIIPVIEDARHPHKYRMLIAMVDVIFADVAQPDQTRIVALNAHTFLRNGGHFVISIKANCIDSTASAEAVFASEVKKMQQENMKPQEQLTLEPYERDHAVVVGVYRPPPKVKN
binding [3]: binds | binding [1]: binds | binding [2]: binds

B2: endogenous NOP2/NSUN1 (enzyme, UniProt P46087 1-812)
chain: T1 sequence
binding [4]: binds | binding [5]: binds | binding [6]: no binding | binding [7]: binds | binding [3]: binds
